Reference: PMC4336329 (PLoS ONE, 2015)
The campaign covered roughly 310,000 compounds. About 2,200 (0.71%) showed an effect of 50% or more. Effects have a minus sign here. Some of the results follow.

The compounds below were run against human ether-à-go-go-related gene (hERG) potassium channel (human, UniProt Q12809) (assay: primary screen, population patch clamp on CHO cells stably expressing hERG).
Sequence of human ether-à-go-go-related gene (hERG) potassium channel (Q12809 whole entry, looked up): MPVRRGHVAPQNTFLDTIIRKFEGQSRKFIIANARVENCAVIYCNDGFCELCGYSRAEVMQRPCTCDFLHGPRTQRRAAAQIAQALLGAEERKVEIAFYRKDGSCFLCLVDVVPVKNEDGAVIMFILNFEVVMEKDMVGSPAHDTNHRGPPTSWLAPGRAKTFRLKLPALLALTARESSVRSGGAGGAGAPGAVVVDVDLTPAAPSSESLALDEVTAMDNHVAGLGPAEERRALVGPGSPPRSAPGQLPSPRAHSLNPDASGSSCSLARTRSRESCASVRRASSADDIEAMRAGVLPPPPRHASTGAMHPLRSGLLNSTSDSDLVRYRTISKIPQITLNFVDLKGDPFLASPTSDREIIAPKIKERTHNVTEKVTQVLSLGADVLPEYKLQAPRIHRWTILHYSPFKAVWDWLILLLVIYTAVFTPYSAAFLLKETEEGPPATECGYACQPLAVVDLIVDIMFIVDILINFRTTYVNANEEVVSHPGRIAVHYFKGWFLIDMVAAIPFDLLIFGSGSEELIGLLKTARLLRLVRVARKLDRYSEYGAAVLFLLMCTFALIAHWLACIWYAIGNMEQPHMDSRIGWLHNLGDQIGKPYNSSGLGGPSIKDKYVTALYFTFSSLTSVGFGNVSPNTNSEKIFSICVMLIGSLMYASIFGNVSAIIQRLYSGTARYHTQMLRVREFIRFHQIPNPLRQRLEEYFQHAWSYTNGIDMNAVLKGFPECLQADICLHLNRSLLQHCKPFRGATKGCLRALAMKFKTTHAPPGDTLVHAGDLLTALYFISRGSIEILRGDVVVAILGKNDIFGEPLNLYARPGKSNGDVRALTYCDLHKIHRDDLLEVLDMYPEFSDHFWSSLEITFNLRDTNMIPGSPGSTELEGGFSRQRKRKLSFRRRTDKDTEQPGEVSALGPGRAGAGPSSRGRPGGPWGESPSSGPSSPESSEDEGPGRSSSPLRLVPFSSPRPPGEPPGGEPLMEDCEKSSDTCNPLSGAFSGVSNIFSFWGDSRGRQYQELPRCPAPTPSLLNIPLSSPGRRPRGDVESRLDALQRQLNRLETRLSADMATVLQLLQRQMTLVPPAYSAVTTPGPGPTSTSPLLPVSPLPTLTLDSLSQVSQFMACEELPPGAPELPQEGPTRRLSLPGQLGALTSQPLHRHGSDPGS

SMILES | hERG current change (%, negative = inhibition) at 1uM
O=S(=O)(Cc1ccccc1)C1CCCCC1O (centres unmarked) | 9.86%
CC1(C)NC(=O)N(CCCCOc2ccc(Cl)cc2)C1=O | -10.3%
Cc1ccccc1OCc1nnc2c3cnn(C)c3ncn12 | 5.31%
Cc1[nH]c2ccccc2c1/C=N/Nc1nc2ccccc2[nH]1 | 11.1%
O=C(CN1CCN(S(=O)(=O)c2ccc(Cl)s2)CC1)NCc1ccc(Cl)cc1 | 15.8%
COc1cc(NC(=O)CS(=O)(=O)c2ccccc2)cc(OC)c1OC | 15.9%
Cc1cccc(C)c1N=C1NN=C(c2ccccc2F)CS1 | 1.08%
COc1ccccc1NC(=O)c1ccc2c(c1)N(CC(=O)NC(C)(C)C)C(=O)C(C)(C)O2 | 10.1%
Cc1c(Cl)cccc1N=C1SCCN1C(=O)CN1C(=O)NC2(CCCC2)C1=O | 10.7%
Cc1cc(C)c(C(=O)N2CCCC(CNS(=O)(=O)N(C)C)C2)o1 (centres unmarked) | 12.2%
O=C(Nc1cccc([N+](=O)[O-])c1)c1cnccn1 | 7.17%
CCCOc1cc(C)c(S(=O)(=O)n2ccc(C)n2)cc1C | -0.817%
COC(=O)c1ccccc1NC(=O)CCCn1nc([N+](=O)[O-])cc1C | 2.03%
Nc1ccc2oc(-c3cccc4ccccc34)nc2c1 | 13.6%
COc1ccc(N2CCN(S(=O)(=O)c3c(C)[nH]c(C)c3C(=O)N3CCCC3)CC2)cc1 | 14.5%
COCCn1c(=NC(=O)CCS(=O)(=O)c2ccccc2)sc2c(OC)ccc(OC)c21 | 4.94%
CCc1c(O)nc(SCC(=O)Nc2nc3ccccc3s2)n(C2CCCCC2)c1=O | 11.8%
CC(=O)N1N=C(c2ccncc2)OC1(Cc1ccccc1)Cc1ccccc1 | -1.64%
CCOc1ccc(OCC)c(NC(=O)CN2CCN(c3cccc(C)c3C)CC2)c1.Cl | 9.79%
CC1CCN(C(=S)c2cn(Cc3cccc(F)c3)c3ccccc23)CC1 | 13.2%
COC(=O)c1sc(N)c(C(=O)OC)c1COC(=O)[C@@H](NS(=O)(=O)c1cccc(Cl)c1)C(C)C | 1.44%
COC(=O)[C@@]1(Cc2ccc(F)cc2)[C@H]2c3cc(C(=O)N4CCCC4)n(Cc4ccc(C(F)(F)F)nc4)c3C[C@H]2CN1C(=O)c1ccccc1 | 3.58%

SMILES | hERG current change (%, negative = inhibition) at 1uM
CC(C)(C)c1ccc(OCC(O)CN2CCN(c3ccccn3)CC2)cc1.Cl (centres unmarked) | 8.32%
CC(=O)C1=C(C)Nc2ncnn2C1c1ccc(Cl)cc1Cl (centres unmarked) | 8.71%
CN(C(=O)CN(c1ccccc1)S(=O)(=O)c1ccc(F)cc1)C1CCS(=O)(=O)C1 (centres unmarked) | 3.88%
CSc1ncccc1C(=O)Nc1ccc2c(c1)OCO2 | 5.57%
CCOn1c(SC(C)C)nc2ccccc2c1=O | 16.9%
COc1ccc(CNC(=O)C(OC(=O)c2nsc(Cl)c2Cl)C(C)C)cc1 (centres unmarked) | 0.641%
CC(=O)c1ccc(NC(=O)CS(=O)(=O)c2cn(CC(=O)N3CCOCC3)c3ccccc23)cc1 | -5.39%
Cc1nc(C(=O)NNC(=O)c2ccc(Cl)cc2)cs1 | 1.04%
Cc1ccc(-c2nc(CS(=O)(=O)CC(=O)NCCN3CCOCC3)c(C)o2)cc1 | 8.63%
O=C1c2oc3ccc(F)cc3c(=O)c2C(c2ccc(F)cc2)N1CCCN1CCOCC1 (centres unmarked) | -3.74%
CCOc1ccc(NC(=O)c2ccc(F)cc2F)cc1 | 15.9%
CC(/C=N/NC(=O)Cn1nccc1C)=C\c1ccc(C(C)C)cc1 | 12.1%
COc1cc2[nH]c(=O)c(C(=O)NCCCN3CCCCC3)c(O)c2cc1OC.Cl | 0.0656%
COc1ccc(OC)c(NC(=O)COC(=O)CNC(=O)c2ccc(OC)c(OC)c2)c1 | -17%
Cc1ccnc(NS(=O)(=O)c2ccc3ccccc3c2)n1 | 16%
COc1ccc(CCN2C(=NC(=O)CCC(=O)O)SC3CS(=O)(=O)CC32)cc1OC (centres unmarked) | 1.15%
Cc1cc(O)ccc1N/C=C/c1onc(C)c1[N+](=O)[O-] | 17.6%
FC(F)(F)c1cc(Oc2ccc(Cl)cc2)ncc1-c1nnc(-c2ccc(Cl)cc2)o1 | 12.9%
Cc1nc2cc(-c3cccs3)[nH]n2c(=O)c1C | 11.5%
COCC(=O)Nc1cccc(Br)c1 | 8.14%
C=CCOC(=O)C(=O)/C=C/c1csc2ccccc12 | 17.5%
CCCCC(Br)C(=O)Nc1ccc(S(=O)(=O)Nc2cc(C)nc(C)n2)cc1 (centres unmarked) | 13.5%
